From PubChem BioAssay AID1159614 (National Center for Advancing Translational Sciences (NCATS), 2016)
Screen size: about 45,000 compounds; about 65 (0.1%) were called active. The call rests on the fitted dose curve; in most records, active means well fitted activation curve with a large enough effect; inconclusive means small, poorly fitted or top-dose-only effect; inactive means no such curve, though single readings can be large or run the other way. Some of the results follow.

molecular target: Galactocerebrosidase (Homo sapiens) (UniProt P54803); test: A Novel Cell-Based Assay to Identify Small Molecules for B -Galactocerebrosidase; conditions: 145M-Twi-hGALC-G270D cells (Twitcher mouse brain line with human GALC G270D), HMU-beta-Gal fluorescence, 48 h; series mostly up to 57.5 µM; activation: at the top concentration; further: 0% is about no effect; nearly all actives have a fitted effect of over 65% in size
Method in brief: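 Live 145M-Twi cells (Twitcher mouse brain-derived, GALC-null) stably expressing human GALC-G270D, with a wild-type GALC line, were compound-treated. Residual GALC activity was then read as fluorescence from 0.1 mM final HMU-β-gal at pH 5.2; higher signal means activation.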

UniProt P54803, sequence (P54803 whole entry, looked up): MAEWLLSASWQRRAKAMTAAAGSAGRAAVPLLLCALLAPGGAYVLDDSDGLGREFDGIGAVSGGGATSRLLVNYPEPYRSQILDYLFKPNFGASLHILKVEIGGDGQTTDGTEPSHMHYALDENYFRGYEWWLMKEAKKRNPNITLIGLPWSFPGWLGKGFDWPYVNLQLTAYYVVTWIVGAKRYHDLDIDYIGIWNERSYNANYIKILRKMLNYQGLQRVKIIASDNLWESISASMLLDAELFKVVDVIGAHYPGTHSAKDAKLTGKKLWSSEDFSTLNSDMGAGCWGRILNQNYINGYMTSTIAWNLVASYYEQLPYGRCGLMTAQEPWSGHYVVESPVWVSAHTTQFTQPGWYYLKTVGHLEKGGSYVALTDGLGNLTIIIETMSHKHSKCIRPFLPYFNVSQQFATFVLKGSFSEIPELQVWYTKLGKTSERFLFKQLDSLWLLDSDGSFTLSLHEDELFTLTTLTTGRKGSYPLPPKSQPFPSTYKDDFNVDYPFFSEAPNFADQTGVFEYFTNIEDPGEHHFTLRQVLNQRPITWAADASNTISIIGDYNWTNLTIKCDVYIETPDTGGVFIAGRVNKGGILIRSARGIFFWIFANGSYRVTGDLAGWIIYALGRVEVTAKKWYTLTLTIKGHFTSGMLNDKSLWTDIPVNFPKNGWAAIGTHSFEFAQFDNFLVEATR

activation, inactive:
Cc1nnc(NCc2ccc(F)cc2)c2c1nnn2Cc1ccccc1Cl -21.2%
Cc1c(Cl)cccc1NC(=O)Cn1cnc(S(=O)(=O)N2CCCC2)c1 -7.12%
COc1ccc(CCNC(=O)Cn2nc(C)c3c(C)n(-c4ccc(C)cc4)nc3c2=O)c(OC)c1 -30.1%
COc1ccc(NC(=O)CC2C(=O)N(c3ccc(C)cc3)C(=O)N2Cc2ccc(C)cc2)cc1 (stereo unspecified) -16.6%
CCC(C(=O)N1CCN(c2ccc(OC)cc2)CC1)n1nc(C)n2c(cc3occc32)c1=O (stereo unspecified) -16.6%
Nc1ccc(S(=O)(=O)NC2(C(F)(F)F)NC(=O)N(c3cccc(Cl)c3)C2=O)cc1 (stereo unspecified) -22.3%
CCN(CC)CCCNC(=O)c1nn(-c2ccc(OC)cc2)c(=O)c2c1c1ccccc1n2C 4.14%
O=c1c2ccccc2nc(N2CCN(c3cccc(Cl)c3)CC2)n1-c1ccccc1 -2.89%
O=C(Nc1ccccc1C(F)(F)F)N1CCC2(CC1)Oc1ccccc1C(=O)N2Cc1ccccc1F -13.8%
CCOC(=O)c1c(C)oc2nc(C)nc(NCc3ccc(OC)cc3)c12 -4.11%
COCCNC(=O)c1ccc2c(c1)N(Cc1c(F)cccc1Cl)C(=O)c1ccccc1S2 -8.07%
CC(=O)Nc1ccc(NC(=O)CCc2c(C)nc3c(c(C)nn3-c3ccccc3)c2C)cc1 -15.6%
CCCCOc1ccc(C(=O)Nc2nc3c(s2)CC(C)CC3)cc1 (stereo unspecified) -8.35%
COC(=O)c1cccc(CN2C(=O)SC(Nc3ccc(Cl)cc3)C2=O)c1 (stereo unspecified) -5.65%
CCOC(=O)c1noc2ncnc(Nc3cccc(C(F)(F)F)c3)c12 -16%
COc1ccc(Nc2c3c(nc4nncn24)CCC3)cc1Cl -40.9%
Cc1ccc(NC(=O)COCc2cc(-c3cccs3)on2)cc1Cl -30.1%
CCCCNS(=O)(=O)c1ccc2nc(-c3cccnc3)cc(C(=O)NCCCOCC)c2c1 -5.16%
C[C@H]1c2cccc(O)c2C(O)=C2C(=O)[C@]3(O)C(O)=C(C(N)=O)C(=O)[C@@H](N(C)C)[C@@H]3[C@@H](O)[C@@H]21 -14.5%
CCCCOC(=O)c1ccc(NC(=O)/C(C#N)=C/c2ccc(C)o2)cc1 -9.87%
Cc1cccc(-n2c(SCC(=O)Nc3ccccc3C)nc3c(oc4ccccc43)c2=O)c1 -6.46%
COC(=O)c1ccc(NC(=O)CN(c2cccc(C(F)(F)F)c2)S(C)(=O)=O)cc1 -15.9%
CCc1ccccc1N1C(=O)N(C)c2ccccc2S1(=O)=O 1.23%
Cc1[nH]c2ccccc2c1C(=O)C(=O)NC1CC(=O)N(c2ccccc2)C1 (stereo unspecified) -8.12%
CCOc1ccccc1CNC(=O)CCn1cccn1 -6.17%
CSc1nn(Cc2ccc(F)cc2)c(N)c1S(=O)(=O)c1ccc(Cl)cc1 -8.73%
COc1cccc(CSc2nc(-c3ccccc3OC)nc3c2Cc2c(CO)cnc(C)c2O3)c1 -5.28%
CCOc1ccc(S(=O)(=O)N2CCN(c3ccc(C)cc3C)CC2)c2ccccc12 -10.8%
CCCN(CCC)CCCNC(=O)C1CCN(S(=O)(=O)c2cccc3nsnc23)CC1 -13.5%
Cc1ccc(C(=O)CC2(O)C(=O)N(Cc3ccccc3)c3ccc(Br)cc32)cc1 (stereo unspecified) -21.5%
CCN(C(=O)c1ccc2c(=O)n3c(nc2c1)CCCCC3)c1cc(C)ccc1C -9.17%
O=C1COc2ccc(-c3cc(-c4ccc(F)cc4)c4c(n3)-c3ccccc3OC4)cc2N1 -6.03%
CCCCCCCCCCCCCCCCO -13.2%
COCc1cc(C)n(CC(=O)Nc2cccc(C(C)=O)c2)c(=O)c1C#N -18.2%
Cc1ccc(-c2n[nH]c3c2C(c2cccs2)N(c2ccc(Cl)cc2)C3=O)cc1 (stereo unspecified) -13.3%
Cc1ccc(C)c(C(=O)CSc2nc3cc(C(=O)NC4CCCC4)ccc3c(=O)n2CC2CCCO2)c1 (stereo unspecified) -13.7%
CCOc1ccccc1C(=O)N1CCCCC1CCN1CCOCC1 (stereo unspecified) -11.3%
Cc1ccc(-c2nc3cc(NC(=O)c4cc(Br)ccc4Cl)ccc3o2)cc1 -7.98%
CSc1cccc(NC(=O)CN(C)S(=O)(=O)c2ccc3c(c2)CCCN3C(C)=O)c1 -7.02%
CCCOc1cccc(C2c3c(oc4cc(C)c(C)cc4c3=O)C(=O)N2CCCN2CCOCC2)c1 (stereo unspecified) -8.74%
CCC(=O)N1CCc2cc(S(=O)(=O)NC(C(=O)NCCc3ccc(C)cc3)C(C)C)ccc21 (stereo unspecified) 2.17%
COc1ccc(N2CCN(Cc3nc(-c4ccc(C)cc4)no3)CC2)cc1 -13.5%
CCOc1cc2[nH]c(=O)n(CCCCCC(=O)NC(C)CC)c(=O)c2cc1OCC (stereo unspecified) -10.5%
CC(C)c1nn2c(=O)cc(COC(=O)c3ccccc3Cl)nc2s1 -9.11%
CC(C)CCNC(=O)c1ccc2c(c1)N(C)C(=O)c1ccccc1S2 -1.2%
CC1CCN(S(=O)(=O)c2cn(CC(=O)Nc3ccc(F)cc3)c(=O)c3ccccc23)CC1 -5.07%
CO[C@@H]1[C@@H](OC)[C@H](C)[C@@](O)(CC(=O)O)O[C@H]1[C@H](C)[C@H]1O[C@@]2(CC[C@@](C)([C@H]3CC[C@@](C)([C@@H]4O[C@@H]([C@H]5O[C@](C)(O)[C@H](C)C[C@@H]5C)C[C@@H]4OC4C[C@H](OC)[C@@H](OC)[C@H](C)O4)O3)O2)C[C@H](O)[C@H]1C (stereo partly specified) -4.66%
COc1ccc(-c2csc(-c3c(N)c(C(=O)c4ccccc4)n4ccccc34)n2)cc1 -22.1%
O=C(NCc1ccccc1Cl)C1CCN(c2ncnc3c2nc2n3CCCCC2)CC1 -0.25%
Cc1nnc(NC(=O)CSCc2cc(=O)c3ccc(C)c(C)c3[nH]2)s1 -29.9%
Cc1cc(C)n2c(Nc3cccc(C(F)(F)F)c3)c(-c3ccsc3)nc2n1 -14.3%
O=C(O)CCn1ccc2cc(S(=O)(=O)N3CCCCC3)ccc21 -2.06%
COc1ccc(Cl)cc1NC(=O)CCCS(=O)(=O)c1nc(-c2ccc(OC)c(OC)c2)cc(C(F)(F)F)n1 -28.1%
CCC(Cc1ccccc1)NC(=O)Cn1ncc2c3ccccc3n(Cc3ccc(F)cc3)c2c1=O (stereo unspecified) -11.8%
CCn1cc2nc(SCc3cccc(F)c3)n(CCc3ccccc3)c(=O)c2n1 -27.4%
Cc1cc(C)cc(-n2ccnc2SCC(=O)Nc2ccc(C)c(Cl)c2)c1 -21.4%
O=C(CN1CCN(c2ccc(Cl)cc2)CC1)Nc1ccc(F)c(F)c1 -25.1%
O=C(Cn1nnnc1-c1ccccc1F)Nc1ccc(F)c(F)c1 7.7%
CCC(=O)N1c2ccccc2CC1C(=O)NCCc1ccc(Cl)cc1 (stereo unspecified) -13.4%
COc1ccc(NC(=O)c2[nH]nc3c2CSc2ccccc2-3)c(OC)c1 -7.85%
CCOc1ccccc1NC(=O)c1nnn(CC(=O)Nc2ccccc2CC)c1N -8.53%
Cc1ccc(-n2nc3c(N4CCC(C(=O)NCCC(C)C)CC4)nnc(C)c3c2C)cc1 1.72%
CC(C)c1ccc(S(=O)(=O)c2cnc(SCC(=O)Nc3ccc(F)cc3F)nc2N)cc1 -4.95%
Cc1ccc2oc(=O)c3cc(C(=O)Nc4cccc(C#N)c4)sc3c2c1 -15.7%
Fc1ccc(N2CCN(c3ncnc4c3nc3n4CCCC3)CC2)cc1 3.63%
CCOc1ccc(NC(=O)CS(=O)(=O)Cc2nc(-c3ccc(C)cc3)oc2C)cc1 -19.5%
COc1ccc(C2CC(=O)Oc3c2c(=O)n(C)c2ccccc32)c(OC)c1OC (stereo unspecified) -2.48%
O=C(COc1ccccc1)Nc1ccc2nc(SCC(=O)N3CCCC3)sc2c1 -4.05%
CCCCOc1ccc(CC(=O)NO)cc1 -23.3%
COc1ccc(OC)c2sc(N(CCCN(C)C)C(=O)c3ccco3)nc12 11.2%
CC(=O)OC(C)C[N+](C)(C)C (stereo unspecified) -37.1%
COc1ccc(C2c3c(oc4ccccc4c3=O)C(=O)N2c2nc(C)c(C)s2)cc1 (stereo unspecified) 2.36%
O=c1c2oc3ccccc3c2ncn1Cc1ccc(Br)cc1 2.68%
Oc1c(Cl)cc(Cl)cc1Sc1cc(Cl)cc(Cl)c1O -6.02%
CCOC(=O)c1ccc(NC(=O)c2ccc(-c3cccc(Cl)c3C)o2)cc1 -6.62%
CCOc1ccc(CCNC(=O)c2cc3c(-c4ccccc4F)nn(C)c3s2)cc1OCC -2.09%
COc1ccc(C2c3c(-c4ccc(F)cc4)n[nH]c3C(=O)N2c2ccccc2)cc1OC (stereo unspecified) -17.5%
Cc1ccccc1CNC(=O)CCSCc1cnn(-c2ccccc2)c1-n1cccc1 -13.1%
C=CCc1ccccc1OCC(O)CNC(C)C (stereo unspecified) -11.8%
CCc1ccc(NC(=O)CSc2nc3ccccc3c(=O)n2CCC(=O)NC2CCCCC2)cc1 -7.95%
COC(=O)c1cc(C)nc2c1c(=O)nc(SCc1c(C)cc(C)cc1C)n2C1CC1 -8.69%
Cc1ccc(S(=O)(=O)N(CC(=O)Nc2c(C)cccc2C)c2cccc(Cl)c2)cc1 -30.2%
O=C(Cn1cc(S(=O)(=O)Cc2ccccc2Cl)c2ccccc21)Nc1cccc(C(F)(F)F)c1 7.75%
Cc1nc2nc(C)c(CCC(=O)NCCc3ccccc3)c(C)n2n1 -24.1%
Cc1ccc2nc(CN3CCN(S(=O)(=O)c4ccccc4)CC3)oc2c1 -5.79%
CC(C)Oc1cccc(C(=O)Nc2ccc3oc(-c4ccccc4)nc3c2)c1 -13.5%
CCOc1ccc(C(NC(=O)c2cc(OC)c(OC)c(OC)c2)c2cc(Cl)c3cccnc3c2O)cc1 (stereo unspecified) -5.13%
Cc1ccc(NC(=O)COc2ccc(-c3nn(C)c(=O)c4ccccc34)cc2)c(C)c1 -19.2%
Nc1c(-c2nc(-c3ccccc3Cl)no2)nnn1-c1ccccc1F -4.71%
Cc1ccc(O)c([C@H](CCN(C(C)C)C(C)C)c2ccccc2)c1 -1.04%
CCC(=O)N1c2ccc(S(=O)(=O)N3CCCCCC3)cc2CC1C (stereo unspecified) -10.3%
CCC(Sc1nc2cc3c(cc2c(=O)n1CCCC(=O)NCc1ccc2c(c1)OCO2)OCO3)C(=O)NCCCOC (stereo unspecified) 9.82%
CCCCSc1nnc2c(n1)OC(c1ccc(C)s1)Nc1ccccc1-2 (stereo unspecified) -23.9%
CCC(CC)c1nn2cc(-c3ccccc3)nc2s1 8.11%
Cc1ccc(N2CCN(S(=O)(=O)c3cc(Br)cc4c3N(C(=O)C3CC3)CC4)CC2C)cc1 (stereo unspecified) -8.96%
CCC(=O)Nc1nnc(S(=O)(=O)N2CCCCCC2)s1 -7.74%
